Assay [1] addresses T1, CTLA-4 (as used in the SPR and ELISA binding studies) (UniProt P16410 36-161, limits assumed).
T1 construct: also called cytotoxic T-lymphocyte-associated antigen-4
T1 sequence (looked up): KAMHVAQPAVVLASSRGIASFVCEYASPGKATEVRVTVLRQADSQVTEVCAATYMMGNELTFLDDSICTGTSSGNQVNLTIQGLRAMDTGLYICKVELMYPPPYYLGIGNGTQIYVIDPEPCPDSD
The experiment in a line: SPR.

Assay [2] deals with T2, PD-L1 (as used in the SPR binding study) (UniProt Q9NZQ7 in part, limits assumed).
T2 construct: also called programmed death-ligand 1
The experiment in a line: SPR.

Assay [3] addresses T3, CD28 (as used in the SPR binding study) (UniProt P10747 19-152, limits assumed).
T3 construct: also called cluster of differentiation 28
The experiment in a line: SPR.

For assay [4], the target named is T1, CTLA-4 (as used in the SPR and ELISA …). The assay is described as follows: CTLA-4 binding ELISA.

T2 sequence (Q9NZQ7 19-238 limits assumed): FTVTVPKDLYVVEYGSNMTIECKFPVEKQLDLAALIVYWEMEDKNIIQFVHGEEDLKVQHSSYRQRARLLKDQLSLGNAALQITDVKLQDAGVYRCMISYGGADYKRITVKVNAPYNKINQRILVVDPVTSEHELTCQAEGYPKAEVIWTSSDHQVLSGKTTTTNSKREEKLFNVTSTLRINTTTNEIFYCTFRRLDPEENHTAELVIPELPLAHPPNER
T3 sequence (P10747 19-152 limits assumed): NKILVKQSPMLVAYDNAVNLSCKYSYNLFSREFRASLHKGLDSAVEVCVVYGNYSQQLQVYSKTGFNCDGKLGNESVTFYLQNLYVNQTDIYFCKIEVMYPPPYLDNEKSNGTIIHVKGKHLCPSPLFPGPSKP

B1: human CD80 ECD:human IgG Fc fusion protein comprising the amino acid sequence of SEQ ID NO:5 (hCD80ECD:hIgG1Fc) (Fc fusion)
chain: VIHVTKEVKEVATLSCGHNVSVEELAQTRIYWQKEKKMVLTMMSGDMNIWPEYKNRTIFDITNNLSIVILALRPSDEGTYECVVLKYEKDAFKREHLAEVTLSVKADFPTPSISDFEIPTSNIRRIICSTSGGFPEPHLSWLENGEELNAINTTVSQDPETELYAVSSKLDFNMTTNHSFMCLIKYGHLRVNQTFNWNTTKQEHFPDN[human IgG1 Fc with changes not spelt out]
notes: also called CD80 ECD-Fc fusion protein; Human CD80 ECD Human Fc IgG1 WT
With B1, the values for the Kd in assay [1], in assay [2] and in assay [3] were 1.8 nM, 183 nM and above 1000 nM, respectively. The molecule also registered an EC50 in assay [4] of 0.034 µg/mL.

The values are drawn from US20230023174A1 (Five Prime, published 2023).
